Measured values reported in PubChem BioAssay AID904 (National Center for Advancing Translational Sciences (NCATS), 2007).
About 530 (0.96%) of roughly 55,000 compounds were called active. The shares of active, inactive and inconclusive entries below differ from those in the screen. The call rests on the fitted dose curve; in most records, active means well fitted cell-killing curve with a large enough effect; inconclusive means small, poorly fitted or top-dose-only effect; inactive means no such curve, though single readings can be large or run the other way. A potency beside an inconclusive call is a rough fit, not a confirmed value.
Potency means the concentration at half of the fitted maximal effect; tags describe the fitted curve by direction and shape.

Assay: qHTS Screen for Compounds that Selectively Target Cancer Cells with p53 Mutations: Cytotoxicity of p53 Null Cells at the Nonpermissive Temperature; further: nearly all actives have a fitted effect of over 50% in size;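 on activity, negative = cell killing: 0% = DMSO only and -100% = full killing by 100 µM tamoxifen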
Conditions: H1299 p53-null (neo) cells, 39C, ATPlite viability, 24 h; activity, negative = cell killing: at 46.1 µM (top of the series)
Method in brief: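 Cells seeded at 600/well, 37C overnight. Compound added (up to 46 uM), plates shifted to 39C for 24 hr. ATPlite added, luminescence read after 20 min at room temperature.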
In the case of `Cn1c(C(=O)N2CCc3ccccc3C2)cc2oc3ccccc3c21`, the Potency was inconclusive: 12.6 µM [cytotoxic, partial curve].
In the case of `Cc1ccc(Nc2nc(Nc3ccc(C)c(C)c3)nc(N3CCOCC3)n2)cc1C`, the Potency was “inactive”.
For `COc1ccccc1N1CCN(C(=O)c2nc(-c3ccc(C)cc3)n3c2CCCCC3)CC1`, the Potency was inconclusive: 31.6 µM [cytotoxic, single point].
For `CCOC(=O)c1ccc(Nc2nc(N)c3cc(OC)c(OC)cc3n2)cc1`, the Potency was inconclusive: 20 µM [cytotoxic, partial curve].
With `Cc1cccc(CCNC(=O)c2ccc3c(c2)nc2n3CCOC2)c1` the Potency was inconclusive: 10 µM [cytotoxic, partial curve].
For `CCCOCc1cc(CN2CCN(c3cccc(Cl)c3)CC2)c(O)c2ncccc12`, the Potency was active: 0.316 µM.
In the case of `Cc1ccc(NC(=O)Cn2c(=O)n(-c3ccc(C)cc3)c(=O)c3ccc(C(=O)NCc4ccccc4Cl)cc32)cc1`, the Potency was inconclusive: 2.51 µM [cytotoxic, full curve].
For `CCOC(=O)C1=C(C)NC(=O)C1CC(=O)Nc1ccccc1` (stereo unspecified), the Potency was inconclusive: 17.8 µM [cytotoxic, partial curve].
For `CCOc1ccc(CNC(=O)CN2C(=O)CCn3nc(-c4cn(C)c5ccccc45)cc32)cc1OC`, the Potency was inconclusive: 5.62 µM [cytotoxic, partial curve, poor fit].
With `CCN(CC)S(=O)(=O)c1ccc2c(c1)c(=O)c(C(=O)N(C)Cc1ccccc1)cn2C` the Potency was “inactive”.
With `CCOc1ccc2c(c1)[C@@H]1C=CC[C@@H]1[C@H](c1ccccc1Cl)N2` the Potency was inconclusive: 35.5 µM [cytotoxic, single point].
For `Cc1ccc(C(CC(=O)NCC2(c3ccccc3)CCCC2)c2ccccc2)c(O)c1` (stereo unspecified), the Potency was inconclusive: 31.6 µM [cytotoxic, single point].
For `Oc1ccccc1-c1nc(-c2cccs2)c(-c2cccs2)[nH]1`, the activity, negative = cell killing was inconclusive: -91.5% [cytotoxic].
For `COc1ccc(-c2nc3nc(C)cc(C)n3c2Nc2c(C)cccc2C)cc1`, the Potency was inconclusive: 31.6 µM [cytotoxic, single point].
In the case of `CCOc1ccc(-c2cn3c(n2)sc2cc(C(=O)NCCCN4CCCCCC4)ccc23)cc1`, the Potency was “inactive”.
In the case of `COc1cc(C2CC(=O)N(Cc3cccc(F)c3)c3ccccc3S2)cc(OC)c1OC` (stereo unspecified), the Potency was “inactive”.
With `Cc1ccc(CN2C(=O)C(O)(c3c(C)[nH]c4ccccc34)c3ccccc32)cc1` (stereo unspecified) the Potency was “inactive”.
With `Nc1c(C(=O)Nc2ccc(F)cc2)sc2nc(-c3cccs3)cc(C(F)(F)F)c12` the Potency was inconclusive: 31.6 µM [cytotoxic, single point].
With `COC(=O)c1cc(Nc2nc3ccccc3nc2NS(=O)(=O)c2ccc(C)cc2)ccc1Cl` the Potency was “inactive”.
With `O=C(COC(=O)c1cc(-c2cccs2)nc2ccccc12)c1ccc(F)cc1` the Potency was inconclusive: 7.94 µM [cytotoxic, partial curve].
For `CC(CCc1ccccc1)NC(=O)Cn1c(=O)nc(-c2ccccc2)c2cc(Cl)ccc21` (stereo unspecified), the Potency was inconclusive: 0.02 µM [cytotoxic, full curve].
For `Cc1cn2c(=O)cc(COC(=O)c3ccc(NC(=O)c4ccc(F)cc4)cc3)nc2s1`, the Potency was “inactive”.
With `CCOc1ccc(NC(=O)c2oc3ccccc3c2NC(=O)COc2cccc(OC)c2)cc1` the activity, negative = cell killing was inconclusive: -34% [cytotoxic].
In the case of `CCS(=O)(=O)c1ncc(Cl)c(C(=O)N2CCN(c3ccc(OC)cc3)CC2)n1`, the Potency was inconclusive: 25.1 µM [cytotoxic, single point].
For `COc1ccc2c(CNCCc3ccc(SC)cc3)c(C(=O)O)n(Cc3ccc(F)cc3)c2c1`, the Potency was inconclusive: 35.5 µM [cytotoxic, single point].
In the case of `CCc1ccc(CNC(=O)CCCn2ccc3cc(S(=O)(=O)N4CCCC4)ccc32)cc1`, the Potency was inconclusive: 10 µM [cytotoxic, partial curve].
In the case of `COc1cccc(NC(=O)C2CCC(CNS(=O)(=O)c3ccc4c(c3)CCCC(=O)N4)CC2)c1` (stereo unspecified), the Potency was inconclusive: 10 µM [cytotoxic, partial curve].
In the case of `COc1cccc(Nc2nc3cc(C)ccc3nc2NS(=O)(=O)c2ccc(Cl)cc2)c1`, the Potency was “inactive”.
With `Cc1ccc(-c2nc3ccccc3[nH]2)cc1NC(=O)COc1ccccc1[N+](=O)[O-]` the Potency was inconclusive: 20 µM [cytotoxic, single point].
For `Cc1cccc(S(=O)(=O)Nc2cccc(-c3ccc(N4CCCCC4)nn3)c2)c1`, the Potency was inconclusive: 12.6 µM [cytotoxic, partial curve].
For `Cc1cc(C)c2c(c1)NC(=O)C2(O)c1c[nH]c2ccccc12` (stereo unspecified), the Potency was inconclusive: 5.01 µM [cytotoxic, partial curve, poor fit].
In the case of `COc1ccc(Nc2oc(-c3ccc(COc4cccc(C)c4)o3)nc2C#N)cc1`, the Potency was “inactive”.
With `Cn1nnnc1SCCCNCc1ccc(Cl)cc1` the Potency was inconclusive: 0.0079 µM [cytotoxic, full curve].
With `COc1cccc2sc(NC(=O)c3ccc4c(c3)OCCO4)nc12` the Potency was active: 7.94 µM.
For `O=C(Cn1ncc2c3ccccc3n(Cc3ccccc3)c2c1=O)NCc1cccs1`, the Potency was “inactive”.
For `O=C(COc1ccc(Br)cc1Br)Nc1ccc(S(=O)(=O)Nc2ncccn2)cc1`, the Potency was “inactive”.
With `Cc1cc(C)c(S(=O)(=O)Nc2ccc3oc(C)c(C(=O)OC(C)C)c3c2)cc1C` the Potency was inconclusive: 22.4 µM [cytotoxic, single point].
With `Cc1ccc(Cl)cc1NC(=O)Cn1c(=O)cc(C)c2c(C)nn(C)c21` the Potency was “inactive”.
For `CCS(=O)(=O)Nc1cc(-c2cn3ccc(C)cc3n2)ccc1C`, the Potency was inconclusive: 12.6 µM [cytotoxic, partial curve].
With `COC(=O)c1cc2occc2n1CC(=O)Nc1cccc(SC)c1` the Potency was inconclusive: 0.398 µM [cytotoxic, partial curve].
For `CCOC(=O)c1cccc(NC(=O)NCCc2c(C)nn(C)c2C)c1`, the Potency was inconclusive: 0.0158 µM [cytotoxic, full curve, poor fit].
For `Cc1cc(NS(=O)(=O)c2ccc3nc(-c4ccccc4)[nH]c3c2)ccc1Br`, the Potency was inconclusive: 35.5 µM [cytotoxic, single point].
In the case of `Cc1ccc(-c2sc(C(=O)Nc3ccc(Br)cc3)cc2CC(=O)O)cc1`, the Potency was inconclusive: 0.005 µM [cytotoxic, full curve, poor fit].
With `CC(=O)c1cccc(NC(=O)Cn2c(=O)c(CNc3ccc(C)cc3)cc3cc4c(cc32)OCCO4)c1` the Potency was inconclusive: 0.501 µM [cytotoxic, full curve, poor fit].
For `COc1ccccc1C(=O)Nc1ccc2nc(N3CCC(C)CC3)cc(C)c2c1`, the Potency was inconclusive: 12.6 µM [cytotoxic, single point].
With `Cc1nn(C(=O)c2ccccc2F)c(C)c1S(=O)(=O)N1CCOCC1` the Potency was inconclusive: 0.251 µM [cytotoxic, full curve, poor fit].
With `CCCNC(=O)c1ccc2c(c1)N=C(C)c1c(C)ccc(C)c1S2` the Potency was inconclusive: 0.447 µM [cytotoxic, full curve].
With `Clc1cccc(-n2ncc3c(NC4CCCCC4)ncnc32)c1` the Potency was inconclusive: 14.1 µM [cytotoxic, single point].
With `O=C(Nc1ccccc1F)c1nc(S(=O)(=O)Cc2ccccc2F)ncc1Cl` the Potency was inconclusive: 31.6 µM [cytotoxic, single point].
In the case of `CCOC(=O)c1[nH]c2ccccc2c1NC(=O)c1ccccc1OCC`, the Potency was inconclusive: 12.6 µM [cytotoxic, partial curve].
In the case of `CCC(C)c1ccc(OCC(=O)Nc2cccc(-c3nc4ncccc4o3)c2)cc1` (stereo unspecified), the Potency was inconclusive: 35.5 µM [cytotoxic, single point].
With `Cc1ccccc1Cn1cc(CCC(=O)NC(C)c2ccccc2)c2ccccc21` (stereo unspecified) the Potency was inconclusive: 0.0251 µM [cytotoxic, full curve].
With `O=C(CNS(=O)(=O)c1cccs1)N1CCN(c2ccccc2Cl)CC1` the Potency was “inactive”.
With `CCCOc1ccc(C2c3c(oc4ccccc4c3=O)C(=O)N2c2ccc(C)cn2)cc1OCC` (stereo unspecified) the Potency was inconclusive: 0.0079 µM [cytotoxic, full curve, poor fit].
For `O=C(Nc1nc2c(s1)CCCC2)c1ccc2ncsc2c1`, the Potency was active: 11.2 µM.
In the case of `COc1cc(OC)c(NS(=O)(=O)c2cc3c(cc2C)NC(=O)CO3)cc1Cl`, the Potency was inconclusive: 0.631 µM [cytotoxic, full curve].
In the case of `Cc1ccc(-c2onc(C)c2C)cc1S(=O)(=O)NCc1cccs1`, the Potency was inconclusive: 25.1 µM [cytotoxic, single point].
In the case of `CC(CNC(=O)CCn1c(=O)c2cccn2c2ccc(F)cc21)c1ccccc1` (stereo unspecified), the Potency was “inactive”.
With `Cc1cc(C)c(S(=O)(=O)Nc2ccc3oc4c(c3c2)CCCC4)cc1C` the Potency was inconclusive: 15.8 µM [cytotoxic, single point].
With `Cc1ccc(NC2=C(Cl)C(=O)c3ccccc3C2=O)cc1` the Potency was “inactive”.
With `Cc1ccc2c(=O)c(C(=O)c3cccc(Cl)c3)cn(CC(=O)NC3CCCCC3)c2n1` the Potency was “inactive”.
With `COc1ccc(-n2nc3c(N4CCC(C(=O)NCc5ccccc5C)CC4)nnc(C)c3c2C)cc1` the Potency was inconclusive: 20 µM [cytotoxic, single point].
For `CC(=O)N1c2ccccc2C(=O)C1N1CCN(c2cccc(Cl)c2)CC1` (stereo unspecified), the Potency was inconclusive: 3.16 µM [cytotoxic, full curve].
For `Cc1cccc(-c2noc(-c3cc(C(C)C)[nH]n3)n2)c1`, the Potency was inconclusive: 35.5 µM [cytotoxic, single point].
In the case of `Cc1ccc(C2=NN(CC(=O)NCCc3ccccc3)C(=O)CC2)cc1`, the Potency was inconclusive: 35.5 µM [cytotoxic, single point].
With `Cc1ccc(Cn2c(CCNC(=O)c3cccc(C)c3)nc3ccccc32)cc1` the Potency was “inactive”.
